Laboratory results as given in US20260193238A1, “PHARMACEUTICAL COMPOUNDS AS PARP7 AND/OR PARP1 INHIBITORS” (Duke Street Bio Limited, priority 2022, published 2026).

target: T1, PARP7 (amino acids 456-657) (Homo sapiens, UniProt Q7Z3E1); assay: PARP7 biochemical DELFIA assay (auto-MARylation); settings: Table 1A
T1 sequence (Q7Z3E1 456-657): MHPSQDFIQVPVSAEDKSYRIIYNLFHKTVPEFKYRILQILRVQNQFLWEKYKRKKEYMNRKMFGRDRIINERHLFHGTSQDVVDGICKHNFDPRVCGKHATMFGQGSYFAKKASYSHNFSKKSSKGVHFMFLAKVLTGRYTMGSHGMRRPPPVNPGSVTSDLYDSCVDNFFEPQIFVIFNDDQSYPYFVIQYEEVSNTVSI

Row | IC50 [µM] | SMILES
1 | ≤ 0.01 | N#Cc1cc(C2CCCN2CC(=O)N2CCN(c3ncc(C(F)(F)F)cn3)CC2)n[nH]c1=O (single isomer, unassigned) [Compound 98a, 3-oxo-6-(1-(2-oxo-2-(4-(5-(trifluoromethyl)pyrimidin-2-yl)piperazin-1-yl)ethyl)pyrrolidin-2-yl)-2,3-dihydropyridazine-4-carbonitrile]
2 | 1 to 10 | N#Cc1cc(C2CCCN2CC(=O)N2CCN(c3ncc(C(F)(F)F)cn3)CC2)n[nH]c1=O (single isomer, unassigned) [Compound 98b, 3-oxo-6-(1-(2-oxo-2-(4-(5-(trifluoromethyl)pyrimidin-2-yl)piperazin-1-yl)ethyl)pyrrolidin-2-yl)-2,3-dihydropyridazine-4-carbonitrile]
3 | ≤ 0.01 | O=C(CN1CCCC1c1cc(C(F)(F)F)c(=O)[nH]n1)N1CCN(c2nc3cc(Cl)ccc3o2)CC1 (single isomer, unassigned) [Compound 99a]
4 | 0.1 to 1 | O=C(CN1CCCC1c1cc(C(F)(F)F)c(=O)[nH]n1)N1CCN(c2nc3cc(Cl)ccc3o2)CC1 (single isomer, unassigned) [Compound 99b]
5 | ≤ 0.01 | N#Cc1ccc2oc(N3CCN(C(=O)CN4CCCC4c4cc(C(F)(F)F)c(=O)[nH]n4)CC3)nc2c1 (single isomer, unassigned) [Compound 100a]
6 | 1 to 10 | N#Cc1ccc2oc(N3CCN(C(=O)CN4CCCC4c4cc(C(F)(F)F)c(=O)[nH]n4)CC3)nc2c1 (single isomer, unassigned) [Compound 100b]
7 | 0.1 to 1 | O=C(CN1CCCC1c1cc(C(F)(F)F)c(=O)[nH]n1)N1CCC2(CC1)CN(c1ncc(C(F)(F)F)cn1)C2 (single isomer, unassigned) [Compound 101b]
8 | ≤ 0.01 | Cc1[nH]c(=O)c(C(F)(F)F)cc1C1CCCN1CC(=O)N1CCN(c2ncc(C(F)(F)F)cn2)CC1 (single isomer, unassigned) [Compound 102a, 6-methyl-5-(1-(2-oxo-2-(4-(5-(trifluoromethyl)pyrimidin-2-yl)piperazin-1-yl)ethyl)pyrrolidin-2-yl)-3-(trifluoromethyl)pyridin-2(1H)-one]
9 | 0.01 to 0.1 | Cc1[nH]c(=O)c(C(F)(F)F)cc1C1CCCN1CC(=O)N1CCN(c2ncc(C(F)(F)F)cn2)CC1 (single isomer, unassigned) [Compound 102b, 6-methyl-5-(1-(2-oxo-2-(4-(5-(trifluoromethyl)pyrimidin-2-yl)piperazin-1-yl)ethyl)pyrrolidin-2-yl)-3-(trifluoromethyl)pyridin-2(1H)-one]
10 | ≤ 0.01 | O=C(CN1Cc2ccccc2C1c1cc(C(F)(F)F)c(=O)[nH]n1)N1CCN(c2ncc(C(F)(F)F)cn2)CC1 (single isomer, unassigned) [Compound 104a, 6-(2-(2-oxo-2-(4-(5-(trifluoromethyl)pyrimidin-2-yl)piperazin-1-yl)ethyl)isoindolin-1-yl)-4-(trifluoromethyl)pyridazin-3(2H)-one]
11 | 0.1 to 1 | O=C(CN1Cc2ccccc2C1c1cc(C(F)(F)F)c(=O)[nH]n1)N1CCN(c2ncc(C(F)(F)F)cn2)CC1 (single isomer, unassigned) [Compound 104b, 6-(2-(2-oxo-2-(4-(5-(trifluoromethyl)pyrimidin-2-yl)piperazin-1-yl)ethyl)isoindolin-1-yl)-4-(trifluoromethyl)pyridazin-3(2H)-one]
12 | 0.01 to 0.1 | CCc1[nH]c(=O)c(C(F)(F)F)cc1C1CCCN1CC(=O)N1CCN(c2ncc(C(F)(F)F)cn2)CC1 (single isomer, unassigned) [Compound 105a]
13 | 1 to 10 | O=C(CN1CCCC1c1cc(C(F)(F)F)c(=O)[nH]n1)N1CC2(C1)CN(c1ncc(C(F)(F)F)cn1)C2 (single isomer, unassigned) [Compound 106b]
14 | 0.1 to 1 | CN(c1ncc(C(F)(F)F)cn1)C1CCN(C(=O)CN2CCCC2c2cc(C(F)(F)F)c(=O)[nH]n2)CC1 (single isomer, unassigned) [Compound 107a]
15 | 0.1 to 1 | CN(c1ncc(C(F)(F)F)cn1)C1CCN(C(=O)CN2CCCC2c2cc(C(F)(F)F)c(=O)[nH]n2)CC1 (single isomer, unassigned) [Compound 107b]
16 | 0.1 to 1 | O=C(CN1CCCC1c1cc(C(F)(F)F)c(=O)[nH]n1)N1CC2(CCN(c3ncc(C(F)(F)F)cn3)CC2)C1 (single isomer, unassigned) [Compound 110b]
17 | ≤ 0.01 | N#Cc1cc(C2CCCN2CC(=O)N2CCN(c3nc4ccc(F)cc4o3)CC2)n[nH]c1=O (single isomer, unassigned) [Compound 111a]
18 | > 10 | O=C(CN1Cc2ccccc2C1c1cc(C(F)(F)F)c(=O)[nH]n1)N1CC(Oc2ncc(C(F)(F)F)cn2)C1 (single isomer, unassigned) [Compound 114b]
19 | 1 to 10 | O=C(CN1CCCC1c1cc(C(F)(F)F)c(=O)[nH]n1)N1CCN(c2ncc(F)cc2Cl)CC1 (single isomer, unassigned) [Compound 116b]
20 | ≤ 0.01 | O=C(CN1CCCC1c1cc(C(F)(F)F)c(=O)[nH]n1)N1CCN(c2nc3ccccn3n2)CC1 (single isomer, unassigned) [Compound 117a]
21 | ≤ 0.01 | O=C(CN1CCCC1c1cc(C(F)(F)F)c(=O)[nH]n1)N1CCN(c2ncc(OC(F)F)cn2)CC1 (single isomer, unassigned) [Compound 118a]

Row | IC50 [µM] | SMILES
22 | 1 to 10 | O=C(CN1CCCC1c1cc(C(F)(F)F)c(=O)[nH]n1)N1CCN(c2ncc(OC(F)F)cn2)CC1 (single isomer, unassigned) [Compound 118b]
23 | 1 to 10 | Cn1c(N2CCN(C(=O)CN3CCCC3c3cc(C(F)(F)F)c(=O)[nH]n3)CC2)nc2ccc(F)cc21 (single isomer, unassigned) [Compound 119b]
24 | 0.01 to 0.1 | O=C(CN1CCCC1c1cc(C(F)(F)F)c(=O)[nH]n1)N1CCN(c2ncc(F)cc2C(F)(F)F)CC1 (single isomer, unassigned) [Compound 120a]
25 | 1 to 10 | O=C(CN1CCCC1c1cc(C(F)(F)F)c(=O)[nH]n1)N1CCN(c2ncc(F)cc2C(F)(F)F)CC1 (single isomer, unassigned) [Compound 120b]
26 | 0.01 to 0.1 | N#Cc1cc(C2CCCN2CC(=O)N2CCN(c3nc4cc(Cl)ccc4o3)CC2)n[nH]c1=O (single isomer, unassigned) [Compound 121a]
27 | 1 to 10 | N#Cc1cc(C2CCCN2CC(=O)N2CCN(c3nc4cc(Cl)ccc4o3)CC2)n[nH]c1=O (single isomer, unassigned) [Compound 121b]
28 | 0.1 to 1 | N#Cc1cc(C2CCCN2CC(=O)N2CC(Nc3ncc(C(F)(F)F)cn3)C2)n[nH]c1=O (single isomer, unassigned) [Compound 123a]
29 | 1 to 10 | N#Cc1cnc(N2CCN(C(=O)CN3CCCC3c3cc(C(F)(F)F)c(=O)[nH]n3)CC2)c(C(F)(F)F)c1 (single isomer, unassigned) [Compound 124b]
30 | ≤ 0.01 | O=C(CN1CCCC1c1cc(C(F)(F)F)c(=O)[nH]n1)N1CCN(c2ncc(Cl)cc2Cl)CC1 (single isomer, unassigned) [Compound 125a]
31 | 1 to 10 | O=C(CN1CCCC1c1cc(C(F)(F)F)c(=O)[nH]n1)N1CCN(c2ncc(Cl)cc2Cl)CC1 (single isomer, unassigned) [Compound 125b]
32 | ≤ 0.01 | O=C(CN1CCCC1c1cc(C(F)(F)F)c(=O)[nH]n1)N1CCN(c2ccc(C(F)F)cn2)CC1 (single isomer, unassigned) [Compound 126a]
33 | 0.1 to 1 | O=C(CN1CCCC1c1cc(C(F)(F)F)c(=O)[nH]n1)N1CCN(c2ccc(C(F)F)cn2)CC1 (single isomer, unassigned) [Compound 126b]
34 | 1 to 10 | CN(c1ncc(C(F)(F)F)cn1)C1CN(C(=O)CN2CCCC2c2cc(C(F)(F)F)c(=O)[nH]n2)C1 (single isomer, unassigned) [Compound 127b]
35 | ≤ 0.01 | O=C(CN1CCCC1c1cc(C(F)(F)F)c(=O)[nH]n1)N1CCN(c2nc3ccc(F)cn3n2)CC1 (single isomer, unassigned) [Compound 128a]
36 | 0.1 to 1 | O=C(CN1CCCC1c1cc(C(F)(F)F)c(=O)[nH]n1)N1CCN(c2nc3ccc(F)cn3n2)CC1 (single isomer, unassigned) [Compound 128b]
37 | ≤ 0.01 | COC1CC(c2cc(C(F)(F)F)c(=O)[nH]n2)N(CC(=O)N2CCN(c3ncc(C(F)(F)F)cn3)CC2)C1 (single isomer, unassigned) [Compound 138cis1, 6-(4-methoxy-1-(2-oxo-2-(4-(5-(trifluoromethyl)pyrimidin-2-yl)piperazin-1-yl)ethyl)pyrrolidin-2-yl)-4-(trifluoromethyl)pyridazin-3(2H)-one]
38 | 1 to 10 | COC1CC(c2cc(C(F)(F)F)c(=O)[nH]n2)N(CC(=O)N2CCN(c3ncc(C(F)(F)F)cn3)CC2)C1 (single isomer, unassigned) [Compound 138cis2, 6-(4-methoxy-1-(2-oxo-2-(4-(5-(trifluoromethyl)pyrimidin-2-yl)piperazin-1-yl)ethyl)pyrrolidin-2-yl)-4-(trifluoromethyl)pyridazin-3(2H)-one]
39 | ≤ 0.01 | COC1CC(c2cc(C(F)(F)F)c(=O)[nH]n2)N(CC(=O)N2CCN(c3ncc(C(F)(F)F)cn3)CC2)C1 (single isomer, unassigned) [Compound 138trans1, 6-(4-methoxy-1-(2-oxo-2-(4-(5-(trifluoromethyl)pyrimidin-2-yl)piperazin-1-yl)ethyl)pyrrolidin-2-yl)-4-(trifluoromethyl)pyridazin-3(2H)-one]
40 | 1 to 10 | COC1CC(c2cc(C(F)(F)F)c(=O)[nH]n2)N(CC(=O)N2CCN(c3ncc(C(F)(F)F)cn3)CC2)C1 (single isomer, unassigned) [Compound 138trans2, 6-(4-methoxy-1-(2-oxo-2-(4-(5-(trifluoromethyl)pyrimidin-2-yl)piperazin-1-yl)ethyl)pyrrolidin-2-yl)-4-(trifluoromethyl)pyridazin-3(2H)-one]
41 | ≤ 0.01 | N#Cc1cc(Cl)cnc1N1CCN(C(=O)CN2CCCC2c2cc(C(F)(F)F)c(=O)[nH]n2)CC1 (single isomer, unassigned) [Compound 144a]
